Test results as given in PubChem BioAssay AID686978 (National Center for Advancing Translational Sciences (NCATS), 2013).
Among all 420,000 compounds or so, about 64,000 (15%) were called active. The inconclusive results got no clear call from the source; some entries with a clear call stand among them for comparison. Calls come from the whole dose curve; as a rule, active = well fitted inhibition curve with a large enough effect; inconclusive = small, poorly fitted or top-dose-only effect; inactive = flat fitted curve, though single readings scatter. Potencies of inconclusive entries are left out as doubtful fits.
% is set by controls: 0 for no effect and ±100 for the full control effect; potency is the fitted concentration of half-maximal effect; tags give direction and shape of the fitted curve.

Assay: qHTS for Inhibitors of human tyrosyl-DNA phosphodiesterase 1 (TDP1): qHTS in cells in absence of CPT; note: nearly all actives have a fitted effect of over 55% in size
Details: DT40 Tdp1-/- hTDP1 cells, no CPT, ATP luminescence, 48 h; activity change, negative = growth inhibition: at 46.2 µM (top of the series) unless noted
Outline: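 Stably hTDP1-transfected Tdp1-null chicken DT40 cells were treated with library compounds minus camptothecin and grown for at least 48 hr at 37 °C, after which cellular ATP was quantified by luminescence.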
With `CC(Oc1ccc(C#N)cc1)C(=O)NC1CCCC1` (centres undefined) the Potency was “inactive”.
In the case of `COc1ccc(C(=O)c2[nH]c(N)c(C(=O)NCCc3c[nH]c4ccccc34)c2-c2ccc(Cl)c(F)c2)cc1`, the Potency is reported as active: 18.4 µM.
In the case of `CCNC(=O)Cn1nc(C)n2c(cc3c(OC)cccc32)c1=O`, the Potency is reported as “inactive”.
For `COc1ccc(C(C)=O)cc1CSCc1cc(C(C)=O)ccc1OC`, the Potency was inconclusive [inhibitor, single point].
For `Cc1ccc(NC(=O)C2CCN(c3nnc(C)c4c(C)n(-c5ccccc5)nc34)CC2)cc1Cl`, the Potency was inconclusive [inhibitor, single point].
For `Cc1oc2ccc(O)c(CN3CCOCC3)c2c1C(=O)Nc1cccc(Cl)c1C`, the Potency was inconclusive [inhibitor, single point].
For `COc1ccc(C)cc1NC(=O)C1CCN(S(=O)(=O)c2ccc3c(c2)NC(=O)CO3)CC1`, the Potency was “inactive”.
In the case of `C[C@H]1CN([C@@H](C)CO)C(=O)c2cc(Br)cnc2O[C@H]1CN(C)C(=O)C1CCC1`, the Potency is reported as inconclusive [inhibitor, partial curve].
With `CS(=O)(=O)N(CC(=O)Nc1cccc(Cl)c1Cl)c1ccccc1` the activity change, negative = growth inhibition was inconclusive: -33% [inhibitor].
With `CCC1=NN(C(=O)COc2ccccc2)C(O)(c2ccncc2)C1` (centres undefined) the Potency was active: 16.4 µM.
With `O=C1C2C3C=CC(C4CC34)C2C(=O)N1/N=C/c1ccc(-c2ccccc2[N+](=O)[O-])o1` (centres undefined) the Potency was active: 18.4 µM.
With `CCCC(NCC(=O)Nc1cc(S(=O)(=O)N2CCOCC2)ccc1OC)c1ccccc1` (centres undefined) the Potency was active: 14.6 µM.
In the case of `Cc1cc(F)ccc1S(=O)(=O)Nc1ccc(C(=O)N2CCCCCC2)cc1`, the Potency is reported as inconclusive [inhibitor, single point].
For `CCCOc1ccc(C(=O)NCC(c2cccs2)N(C)C)cc1` (centres undefined), the Potency was “inactive”.
For `O=C(N=Nc1c(O)[nH]c2ccc(Br)cc12)c1cc(-c2cccc3ccccc23)n[nH]1`, the Potency was inconclusive [inhibitor, single point].
For `Cc1ccc(OCCCSc2nc(-c3ccc(C(C)(C)C)cc3)nc3cc(=O)[nH]n23)cc1C`, the Potency was active: 25.9 µM.
With `COc1ccc(C(=O)NCCNC(=O)c2cnccn2)cc1` the Potency was “inactive”.
With `Nc1nc(-c2cc3ccccc3o2)cs1` the Potency was “inactive”.
In the case of `CCOc1ccccc1NC(=O)C1CCN(C(=O)NCc2ccccc2)CC1`, the Potency is reported as inconclusive [inhibitor, single point].
In the case of `COc1ccc(C)cc1NC(=O)NCc1ccccn1`, the Potency is reported as “inactive”.
In the case of `Cc1ccc(-n2nc(C)c3c(C)c(CCC(=O)NCc4ccco4)c(C)nc32)cc1`, the Potency is reported as inconclusive [inhibitor, partial curve].
With `O=S(=O)(Nc1cccc(CCc2ccccn2)c1)c1cc(Cl)ccc1Cl` the Potency was inconclusive [inhibitor, single point].
In the case of `Cc1nc(NC(=O)c2ccccc2)sc1-c1cc(C(=O)O)nn1Cc1ccccc1`, the Potency is reported as “inactive”.
For `C=C(C)CSc1nnc(-c2cccc(S(=O)(=O)N(C)C)c2)n1-c1cc(OC)ccc1OC`, the Potency was inconclusive [inhibitor, single point].
For `CCCc1ccc(Oc2cn[nH]c2-c2ccc(O)cc2O)cc1`, the Potency was inconclusive [inhibitor, single point].
With `COCCCNC(=O)C1CCN(c2cc(C)nc3c(-c4ccc(Cl)cc4)c(C)nn23)CC1` the Potency was “inactive”.
In the case of `CCc1cccc(CC)c1NC(=O)c1ccc(-c2cc(Cl)ccc2Cl)o1`, the Potency is reported as inconclusive [inhibitor, partial curve].
In the case of `C[C@H]1CN([C@@H](C)CO)C(=O)CCCn2nncc2CO[C@H]1CN(C)S(=O)(=O)c1ccc2ccccc2c1`, the Potency is reported as active: 23.1 µM.
For `O=C(CNS(=O)(=O)c1ccc2c(c1)OCCCO2)N1CCN(c2ccc(F)cc2)CC1`, the Potency was inconclusive [inhibitor, partial curve].
With `CCc1nn2c(=O)cc(COC(=O)C(CC)c3ccccc3)nc2s1` (centres undefined) the Potency was “inactive”.
With `O=C(NC(=S)Nc1ccccc1N1CCN(C(=O)c2ccccc2)CC1)c1cccs1` the Potency was inconclusive [inhibitor, partial curve].
For `CCOC(=O)C1=CCN(S(=O)(=O)c2ccccc2Br)C1c1ccc(Br)cc1` (centres undefined), the Potency was inconclusive [inhibitor, single point].
For `C=CCN(CC=C)CCCOc1ccc(C)cc1OC`, the Potency was inconclusive [inhibitor, single point].
With `Cc1c(C(=O)Nc2ccccc2Cl)oc2ccc(S(=O)(=O)N3CCC4(CC3)OCCO4)cc12` the Potency was “inactive”.
For `CN(C)c1ccc(N2[C@@H](CC(=O)O)c3cc(C(F)(F)F)ccc3S2(=O)=O)cc1`, the Potency was inconclusive [inhibitor, partial curve].
With `Cc1ccc(O)c(-c2cc(C(F)(F)C(F)F)nc(-c3ccccc3)n2)c1` the Potency was inconclusive [inhibitor, partial curve].
For `COc1ccccc1NC(=O)C(C)OC(=O)CCC1CCCCC1` (centres undefined), the Potency was inconclusive [inhibitor, single point].
With `COc1ccc(NC(=O)CN2CCC(NC(=O)C3CCCCC3)CC2)c([N+](=O)[O-])c1` the Potency was “inactive”.
In the case of `CCCNC(=O)CSc1nc(-c2ccc(OC)cc2)cc(C(F)(F)F)n1`, the Potency is reported as inconclusive [inhibitor, partial curve].
In the case of `O=C(Nc1ccc2oc(-c3cccnc3)nc2c1)c1cccnc1`, the Potency is reported as inconclusive [inhibitor, single point].
For `O=C(O)CSCCOc1ccc(OCCSCC(=O)O)cc1`, the Potency was “inactive”.
For `COC(=O)c1cn(CC(=O)NC2CCCCC2)c2ccccc12`, the Potency was “inactive”.
In the case of `COc1ccccc1-n1cnc2c(c1=O)c1nc3ccccc3nc1n2-c1ccc(C)cc1`, the Potency is reported as inconclusive [inhibitor, single point].
In the case of `COc1cc(-c2nc(-c3cccc(C(F)(F)F)c3)no2)cc(OC)c1OC`, the Potency is reported as inconclusive [inhibitor, partial curve].
With `CCCCn1c(SCC(=O)c2ccc3c(c2)OCCO3)nnc1-c1ccco1` the Potency was inconclusive [inhibitor, single point].
For `COc1ccccc1CNC(=O)[C@H](NC(=O)C1CCN(C(=O)[C@@H](N)CCSC)CC1)C(C)C`, the Potency was “inactive”.
In the case of `COc1ccc(O)c(-c2cc(-c3ccccc3[N+](=O)[O-])[nH]n2)c1`, the Potency is reported as inconclusive [inhibitor, single point].
In the case of `Cc1ccc(S(=O)(=O)C(c2ccccc2)c2c(C)noc2C)cc1` (centres undefined), the Potency is reported as inconclusive [inhibitor, partial curve].
In the case of `COC(=O)[C@]1(C)CCC[C@@]2(C)C3CC[C@]4(OC(C)=O)C[C@@]3(CCC21)CC4=O` (some centres undefined), the Potency is reported as inconclusive [inhibitor, single point].
In the case of `CCCCn1c(-c2ccc(C(C)(C)C)cc2)nc2cc3[nH]c(=O)c(C(C)C)nc3cc21`, the Potency is reported as active: 14.6 µM.
For `Cc1cccc(-c2nc(CSCC(=O)NCc3cccs3)c(C)o2)c1`, the Potency was inconclusive [inhibitor, single point].
In the case of `O=C(COC(=O)CCC(=O)c1ccc(F)cc1)Nc1cccc(S(=O)(=O)N2CCOCC2)c1`, the Potency is reported as “inactive”.
With `O=C(CC1N=C2c3ccccc3N=C(SCC(=O)Nc3ccc(F)cc3)N2C1=O)NCc1cccs1` (centres undefined) the Potency was inconclusive [inhibitor, single point].
For `c1ccc(CN2CCC3(CCCc4ccccc43)CC2)cc1`, the Potency was active: 16.4 µM.
With `O=Cc1ccc(-n2cc(C=O)c3ccccc32)cc1` the Potency was inconclusive [inhibitor, single point].
With `Cc1nn(C)cc1C(C(=O)NC1CCCCC1)N(C(=O)c1cnccn1)c1ccc(Oc2ccccc2)cc1` (centres undefined) the Potency was inconclusive [inhibitor, partial curve, poor fit].
For `CCc1ccc(NC(=O)C(=O)NCC2CCCO2)cc1` (centres undefined), the Potency was inconclusive [inhibitor, full curve, poor fit].
In the case of `COC(=O)c1ccccc1NC(=O)N1CCN(c2ccc(OC)cc2)CC1`, the Potency is reported as inconclusive [inhibitor, single point].
For `O=C(c1sccc1-c1ccccc1)N1CCN(S(=O)(=O)c2ccccc2)CC1`, the Potency was active: 23.1 µM.
With `CC(NC(=O)Cn1cc([N+](=O)[O-])cn1)c1ccc(C(C)(C)C)cc1` (centres undefined) the Potency was inconclusive [inhibitor, single point].
In the case of `Cc1cc(C)n(CC(=O)NNC(=O)C2CC(=O)N(Cc3ccccc3Cl)C2)n1` (centres undefined), the Potency is reported as inconclusive [inhibitor, partial curve].
For `COc1ccc(CC(=O)N2CCc3cc(OC)c(OC)cc3C2COc2ccc(F)cc2)cc1OC` (centres undefined), the Potency was inconclusive [inhibitor, single point].
In the case of `CC(C)(C)c1ccc(C(=O)OCC(=O)Nc2sc3c(c2C#N)CCC3)cc1`, the Potency is reported as inconclusive [inhibitor, single point].
In the case of `COc1cc(OC)cc(C(=O)N[C@H](C(=O)OCc2cc(=O)oc3cc(C)ccc23)C(C)C)c1`, the Potency is reported as inconclusive [inhibitor, single point].
With `COc1ccc(C(=O)Nc2nc(-c3ccc(S(=O)(=O)N4CCOCC4)cc3)cs2)cc1` the Potency was active: 20.6 µM.
With `C=CCc1cccc2cc(NC(C)=O)c(=O)oc12` the Potency was inconclusive [inhibitor, partial curve].
With `Cc1ccc(N2C(=O)C(CN3CCCC3)C2c2ccccc2)cc1` (centres undefined) the Potency was active: 23.1 µM.
With `CCOc1ccc(S(=O)(=O)N2CCC(C(=O)Nc3ccccc3N3CCCC3)CC2)cc1` the Potency was active: 20.6 µM.
For `O=C(COC(=O)CSc1ccc(Cl)cc1)NCCc1ccccc1`, the Potency was “inactive”.
